Assay results from article PMC4336329 (PLoS ONE, 2015).
About 14,000 (4.5%) of roughly 310,000 compounds showed an effect of 50% or more. The effect is printed as a negative number. Some of the results follow. Where a SMILES comes first, the peptide text is derived from it. [ ]: non-standard residue; d: D form. The star is where a group is joined. ξ: configuration not given here. Tos = Cc1ccc(S(=O)(=O)*)cc1; Inp = O=C(O)C1CCNCC1; ξP = O=C(O)C1CCCN1

target: human ether-à-go-go-related gene (hERG) potassium channel (human, UniProt Q12809); test: primary screen, population patch clamp on CHO cells stably expressing hERG
Sequence (Q12809 whole entry, looked up): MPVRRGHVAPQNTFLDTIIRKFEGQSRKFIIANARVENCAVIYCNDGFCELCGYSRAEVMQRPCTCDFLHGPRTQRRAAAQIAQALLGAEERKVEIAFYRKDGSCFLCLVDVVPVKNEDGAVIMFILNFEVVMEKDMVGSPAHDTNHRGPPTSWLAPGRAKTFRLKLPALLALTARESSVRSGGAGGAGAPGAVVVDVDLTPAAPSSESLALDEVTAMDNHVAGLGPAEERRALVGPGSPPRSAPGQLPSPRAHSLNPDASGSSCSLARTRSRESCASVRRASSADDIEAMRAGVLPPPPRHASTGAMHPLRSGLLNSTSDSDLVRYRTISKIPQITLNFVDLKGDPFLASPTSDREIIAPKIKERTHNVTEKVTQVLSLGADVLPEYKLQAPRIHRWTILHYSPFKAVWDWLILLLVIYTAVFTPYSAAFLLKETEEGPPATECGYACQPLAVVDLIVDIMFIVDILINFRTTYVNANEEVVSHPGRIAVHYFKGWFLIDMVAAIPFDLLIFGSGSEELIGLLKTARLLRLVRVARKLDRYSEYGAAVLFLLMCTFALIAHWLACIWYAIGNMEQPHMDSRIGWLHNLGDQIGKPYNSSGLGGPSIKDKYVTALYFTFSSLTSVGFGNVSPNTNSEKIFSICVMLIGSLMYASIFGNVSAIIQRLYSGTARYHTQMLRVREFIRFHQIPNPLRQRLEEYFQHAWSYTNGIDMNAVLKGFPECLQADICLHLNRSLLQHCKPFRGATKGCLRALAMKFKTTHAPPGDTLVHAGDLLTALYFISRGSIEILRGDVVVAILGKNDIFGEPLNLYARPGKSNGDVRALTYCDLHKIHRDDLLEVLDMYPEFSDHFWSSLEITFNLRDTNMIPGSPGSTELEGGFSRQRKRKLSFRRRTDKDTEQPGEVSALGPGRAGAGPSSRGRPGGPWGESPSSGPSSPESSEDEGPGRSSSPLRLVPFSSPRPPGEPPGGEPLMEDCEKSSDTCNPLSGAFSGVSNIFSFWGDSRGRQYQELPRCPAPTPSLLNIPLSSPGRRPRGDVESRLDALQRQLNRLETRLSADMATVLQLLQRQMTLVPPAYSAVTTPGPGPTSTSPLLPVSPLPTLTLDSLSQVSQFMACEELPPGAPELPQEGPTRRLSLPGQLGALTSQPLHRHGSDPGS
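Also: peak tail current of the secondary pulse compared with the same well before compound.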

SMILES | hERG current change (%, negative = inhibition) at 10uM
CC1CC(C)CN(C(=O)COC(=O)c2ccc3ccccc3n2)C1 (centres unmarked) | 3.79%
COc1ccc(CCN(C)C(=O)c2cnc(C)cn2)cc1OC | 19.6%
Cc1cccc(C(c2c(C)nn(-c3ccccc3)c2N)c2c(C)nn(-c3ccccc3)c2N)c1 | -34.9%
Cc1cc(NC(=O)CSc2ccc(-c3ccc(Br)cc3)nn2)no1 | 11.1%
S=C(NCc1ccccc1)NN1CCOCC1 | 15.5%
Cc1cccc(NC(=O)CSc2nnc(-c3ccncc3)n2C)c1 | -33.4%
O=C(CSCc1ccc(F)cc1)NCc1ccc(F)cc1 | -24.7%
COc1cc(/C=C2\C(=N)N3N=CSC3=NC2=O)ccc1OS(=O)(=O)c1ccccc1 | 4.2%
COC(=O)CCC(=O)OC1(C)C(=O)C2=CN(CCN3CCOCC3)C(c3ccc(OC)cc3)=CC2=C(Br)C1=O (centres unmarked) | -24.3%
O=C(CN(C(=O)CSc1nc2ccccc2o1)c1ccccc1F)NC1CCCCC1 | 1.79%
COc1cc(C(=O)N(C)CCOc2ccccc2)ccc1OCC(=O)Nc1cccc(C(F)(F)F)c1 | -14.2%
Cc1ccc(CNC(=O)C2CC(=O)OC23CCCC3)c(C)c1 (centres unmarked) | -0.109%
O=c1c2ccccc2c(/C=N/c2nnc(Cc3ccccc3)s2)c(O)n1-c1ccc(Cl)cn1 | 10.1%
COc1ccc(N2CCN(c3nc(NCCc4ccc(OC)c(OC)c4)nc(OC)n3)CC2)cc1 | -78.3%
Cc1cc2nc(SCC(=O)O)nc(C)c2cc1C | 9.92%
CS(=O)(=O)NNP(=O)(NNS(C)(=O)=O)NC(=O)c1ccc(Br)cc1 | 10.9%
O=C(/C=C/Nc1ccc(F)cc1)c1ccc(Oc2ncccn2)cc1 | 17.9%
CC1CCC(C(C)C)C(OC(=O)Cn2c(-c3ccccc3)[n+](C)c3ccccc32)C1.[Cl-] (centres unmarked) | -77.3%
O=C(N/N=C\c1cn[nH]c1-c1ccccc1)c1cccs1 | 2.32%
O=C(COc1ccc(/C=C\[N+](=O)[O-])cc1)N1CCOCC1 | -17.7%
O=c1cc(O)nc(SC23CC4CC(CC(C4)C2)C3)[nH]1 | -0.617%
Cc1ccc(S(=O)(=O)c2c(C)cc(C)[nH]c2=O)c(C)c1 | 6.28%
Cc1cccc(NC(=S)N2CCN(c3ccccc3)CC2)c1 | 9.39%

SMILES | hERG current change (%, negative = inhibition) at 10uM
O=C(c1cccc(S(=O)(=O)Nc2ccc(F)cc2)c1)N1CCOCC1 | 14.4%
Nc1c(C(=O)Nc2cccc(F)c2)nnn1-c1ccc2c(c1)OCCO2 | 8.13%
CN1CCOCCOCCN(C)C(=O)N2CCOCCOCCN(CCOCC2)C1=O | 8.67%
CCC(C)(C(=O)Nc1c(C)cccc1C)N(C)C(=O)c1ccc2ccccc2n1 (centres unmarked) | 8.52%
S=C(NCC1CCCO1)N1CCN(c2nc(-c3ccccc3)cs2)CC1 (centres unmarked) | -5.89%
CN(CC(=O)NCCCN1CCOCC1)S(=O)(=O)c1ccc(F)cc1 | 15.4%
O=C(O)CC/C(=N/Nc1ncc(C(F)(F)F)cc1Cl)C(=O)O | 20.6%
COc1ccc(CC(=O)NNc2ncnc3c2cnn3-c2ccccc2)cc1 | 7.83%
CCOC(=O)c1ccc(NC(=O)CSC2=NN3CCCC(=O)N=C3S2)cc1 | 1.3%
O=C1N/C(=N\N=C\c2ccccn2)SC1Cc1cccc(SC(F)F)c1 (centres unmarked) | 1.89%
Cc1ccc(Cn2ncn(-c3ccccc3)c2=O)cc1 | 11.1%
CCOC(=O)NNC1CC(=O)N(c2ccc(OC)cc2)C1=O (centres unmarked) | 16.6%
CCN(CC)C(=O)CSc1nnc2cc(C)c3ccccc3n12 | 8.77%
C/C(Cl)=C\Cn1c(Nc2cccc(C)c2)nc2c1c(=O)n(C)c(=O)n2C | 2.69%
Cc1ccc(NC(=O)COc2ccccc2)cc1S(=O)(=O)N1CCCCCC1 | -24.4%
CSc1nnc(-c2cccc(NC(=O)c3ccccc3)c2)n1C | -22%
CCN(CC)S(=O)(=O)c1cc(NC(=O)C(C)N2CC=C(c3ccccc3)CC2)ccc1C (centres unmarked) | 0.182%
O=C(COc1ccccc1)Nc1nnc(-c2ccc(F)cc2)o1 | -16.4%
CCOC(=O)C(NC(=O)Nc1ccc(O)cc1)(c1ccccc1)C(F)(F)F (centres unmarked) | 9.14%
CCOC(=O)c1nn(-c2ccc(Cl)cc2)c2nc(Nc3ccccc3)cc(=O)n12 | 15.2%
O=C(Cn1ccc(=O)[nH]c1=O)NCCO | 0.719%
Cc1nc(Nc2nc(-c3ccccc3)cc(=O)[nH]2)nc2ccccc12 | -3.73%
COc1ccc(/C=C/C(=O)Oc2ccc(C=O)cc2OC)cc1 | 1.92%

SMILES | hERG current change (%, negative = inhibition) at 10uM
Nc1c(S(=O)(=O)c2ccccc2)c2nc3ccccc3nc2n1CCN1CCOCC1 | -38.2%
COc1ccc(/C=C/C(=O)NCCc2c[nH]c3ccccc23)cc1OC | 3.5%
CN(C)CCN(C(=O)c1ccc2c(c1)OCCO2)c1nc2cc3c(cc2s1)OCO3.Cl | -41.9%
O=C(c1cn(-c2ccccc2)nc1-c1ccccc1)N1CCN(c2ccccn2)CC1 | -13.6%
COc1ccc(C(=O)NCCCNC(=O)c2cccnc2)cc1Br | 3.11%
O=C(CN1CCCCCCC1)N/N=C/c1ccc([N+](=O)[O-])o1 | -52.1%
CCN(c1ccc(NC(=O)COC(=O)c2ccc([N+](=O)[O-])o2)cc1)C(C)C | 17.2%
Cc1cccc(NC(=O)CSCC(=O)Nc2sccc2C#N)c1 | -32.2%
O=S1(=O)NC(CC2=CCCCC2)C2CCCCC2O1 (centres unmarked) | 8.16%
CCC(C)n1c(=S)[nH]c2ccccc2c1=O (centres unmarked) | -0.621%
CSc1nnc2c(n1)OC(c1ccsc1)N(C(C)=O)c1ccccc1-2 (centres unmarked) | -30.2%
COc1ccc(-c2cc(C(=O)N3CCCCC3)c3ccccc3n2)cc1OC | -7.8%
CSC1=NCCN1C(=O)Cc1cccc2ccccc12 | 3.38%
O=C(Nc1cc([N+](=O)[O-])ccc1O)NC1CCS(=O)(=O)C1 (centres unmarked) | 16.8%
CC(Sc1nncs1)C(=O)NC1CCCCC1C (centres unmarked) | 2.1%
O=C(NNc1cccc(Cl)n1)Nc1ccc(Cl)cc1 | 8.43%
Cn1ccnc1C(=O)c1ccc(Cl)c(S(=O)(=O)N2CCOCC2)c1 | 2.84%
COc1ccc(Cl)cc1NC(=O)COc1ccc(S(=O)(=O)N2CCOCC2)cc1C | 10.8%
CC(C)NC(=O)c1ccc2c(=O)n(CC3CCCO3)c(=S)[nH]c2c1 (centres unmarked) | -1.14%
Cc1ccccc1-n1c(SCC(=O)N/N=C/c2sccc2C)nc2ccccc2c1=O | -0.988%
CC(=O)Nc1ccc(NC(=O)c2ccc(COc3ccc(C)cc3)o2)cc1 | 16.4%
Brc1ccccc1-c1nc2c3ccccc3ncn2n1 | -15%
CN(C)S(=O)(=O)c1ccc(NC(=O)CN2CCN(c3ccccn3)CC2)cc1 | 13.9%

SMILES | hERG current change (%, negative = inhibition) at 10uM
Cc1nnc(Nc2ccc(C(=O)N3CCOCC3)cc2)c2ccccc12 | 7.52%
COC(=O)c1ccccc1OC(=O)c1cccnc1 | 13.1%
CCCn1c(N)nc2ccccc21 | 8.05%
Cc1ccc(S(=O)(=O)N2CCC(C(=O)N3CCCC3C(=O)N[C@@H](CC(C)C)C(=O)NCC(N)=O)CC2)cc1 (stereo partly drawn) ({Tos-Inp}-[ξP]-Leu-Gly-NH2) | -0.797%
Cl.Clc1ccc(Nc2nc3cccnc3s2)cc1 | 35%
COc1ccc(/C=C(\C#N)C(=O)ONC2=NCCCCC2)cc1 | 25.3%
O=C(NNC(=O)c1ccccc1O)c1ccc(Cl)c(S(=O)(=O)N2CCc3ccccc32)c1 | -3.31%
Cc1noc(C)c1COC(=O)COc1ccc(C#N)cc1 | 2.8%
O=c1[nH]cnc2sc3c(c12)CCN(Cc1ccccc1)C3 | 16.1%
COC(=O)c1ccc(Cc2ccccc2)o1 | 1.41%
Cl.N/C(=N\N=C/c1ccc(Br)cc1)N/N=C\c1ccc(Br)cc1 | 16%
COC(=O)c1ccc(NC(=S)NCCc2ccc(OC)cc2)cc1 | 22%
CC(C)C(=O)Nc1ccc(C(=O)c2ccccc2)cc1 | -19.8%
CN(CCOC(=O)c1cccc(F)c1)Cc1ccccc1.Cl | -28.1%
Clc1ccc(/C=C/c2ncc3ccccn23)cc1 | 3.23%
CC1(C)Cc2c(sc(NC(=O)c3ccc(S(=O)(=O)N4CCCC4)cc3)c2C#N)C(C)(C)N1 | -8.79%
Cc1ccc(F)c(NC(=O)C2CCCCC2C(=O)O)c1 (centres unmarked) | 8.23%
CCn1c(CCNC(=O)c2ccc(Cl)cc2Cl)n[nH]c1=S | -10.3%
O=C(Cn1c(=O)n(Cc2ccc(F)cc2)c(=O)c2ccccc21)NCC1CCCO1 (centres unmarked) | -2.66%
O=C(COC(=O)c1ccccc1SCC(=O)N1CCCC1)NCc1ccccc1 | -12.1%
